Some of the results follow. The full chains were built here from the parent and the listed change. Values near 0.05 are background.
B1: TEV protease; numbered along this chain (parent)
chain: MGESLFKGPRDYNPISSSICHLTNESDGHTTSLYGIGFGPFIITNKHLFRRNNGTLVVQSLHGVFKVKDTTTLQQHLVDGRDMIIIRMPKDFPPFPQKLKFREPQREERICLVTTNFQTKSMSSMVSDTSCTFPSGDGIFWKHWIQTKDGQCGSPLVSTRDGFIVGIHSASNFTNTNNYFTSVPKNFMELLTNQEAQQWVSGWRLNADSVLWGGHKVFMVKPEEPFQPVKEATQL

Variants of: B1
Experiment: raw area under fraction-flipped curve 0-4 h after induction (AUC4h, not background-subtracted), DNA-recorder readout of cleavage of the substrate (dimensionless); higher = more cleavage of the substrate by the protease variant
Settings: temperature: 34 °C; time window: 0-4 h after rhamnose induction
Protocol: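 In vivo DNA recorder in E. coli TOP10(DE3) ΔrhaA at 34 °C. Each TEVp single-site mutant (parent TEVp 0) is paired with a single-site variant of the 7-mer TEVs (canonical ENLYFQ|S). The substrate sits between flexible linkers in a Bxb1-sfGFP-TEVs-SsrA fusion, so cleavage stabilises Bxb1 and speeds flipping of a recombination array, read by NGS. The value is the raw area under the fraction-flipped curve over 0-4 h after rhamnose induction (AUC4h), with ≥20 reads per time point. It is not background-subtracted; inactive controls average about 0.047.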
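Further: Bxb1 expression induced with 0.2% (w/v) L-rhamnose at OD600 near 0.5, cultures sampled hourly, flipped fraction per protease–substrate barcode pair counted by paired-end Illumina sequencing.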

Row | Variant | area with substrate EALYFQS | area with substrate ELLYFQS | area with substrate EMLYFQS | area with substrate EPLYFQS | area with substrate ERLYFQS | area with substrate ESLYFQS | area with substrate EVLYFQS | area with substrate EYLYFQS | area with substrate EQLYFQS | area with substrate EWLYFQS | area with substrate ECLYFQS | area with substrate EDLYFQS | area with substrate EELYFQS | area with substrate EGLYFQS | area with substrate EHLYFQS | area with substrate EILYFQS | area with substrate EKLYFQS | area with substrate ETLYFQS | area with substrate EFLYFQS
1 | MGESLFKGPRDYNPISSSICHLTNESDGHTTSLYGIGFGPTIITNKHLFRRNNGTLVVQSLHGVFKVKDTTTLQQHLVDGRDMIIIRMPKDFPPFPQKLKFREPQREERICLVTTNFQTKSMSSMVSDTSCTFPSGDGIFWKHWIQTKDGQCGSPLVSTRDGFIVGIHSASNFTNTNNYFTSVPKNFMELLTNQEAQQWVSGWRLNADSVLWGGHKVFMVKPEEPFQPVKEATQL [F41T] | 0.0936 | 0.077 | 0.116 | 0.0957 | 0.0847 | 0.0955 | 0.0853 | 0.0916 |  |  |  |  |  |  |  |  |  |  | 
2 | MGESLFKGPRDYNPISSSICHLTNESDGHTTSLYGIGFGPFIITNKHLFRRNNGTLVVQSLHGVFKVKDTTTLQQHLVDGRDMIIIRMPKDFPPFPQKLKFREPQREERICLVTTNFQTKSMSSMVSDTSCTFPSGDGPFWKHWIQTKDGQCGSPLVSTRDGFIVGIHSASNFTNTNNYFTSVPKNFMELLTNQEAQQWVSGWRLNADSVLWGGHKVFMVKPEEPFQPVKEATQL [I139P] | 0.108 |  | 0.172 | 0.128 |  | 0.108 | 0.111 |  | 0.116 | 0.111 |  |  |  |  |  |  |  |  | 
3 | MDESLFKGPRDYNPISSSICHLTNESDGHTTSLYGIGFGPFIITNKHLFRRNNGTLVVQSLHGVFKVKDTTTLQQHLVDGRDMIIIRMPKDFPPFPQKLKFREPQREERICLVTTNFQTKSMSSMVSDTSCTFPSGDGIFWKHWIQTKDGQCGSPLVSTRDGFIVGIHSASNFTNTNNYFTSVPKNFMELLTNQEAQQWVSGWRLNADSVLWGGHKVFMVKPEEPFQPVKEATQL [G2D] |  | 0.0898 | 0.0895 | 0.115 | 0.11 | 0.0988 |  | 0.0867 | 0.0859 | 0.0723 | 0.0997 | 0.111 | 0.0935 | 0.0947 | 0.13 | 0.09 | 0.104 | 0.0768 | 
4 | MGETLFKGPRDYNPISSSICHLTNESDGHTTSLYGIGFGPFIITNKHLFRRNNGTLVVQSLHGVFKVKDTTTLQQHLVDGRDMIIIRMPKDFPPFPQKLKFREPQREERICLVTTNFQTKSMSSMVSDTSCTFPSGDGIFWKHWIQTKDGQCGSPLVSTRDGFIVGIHSASNFTNTNNYFTSVPKNFMELLTNQEAQQWVSGWRLNADSVLWGGHKVFMVKPEEPFQPVKEATQL [S4T] |  |  | 0.124 | 0.141 | 0.155 | 0.143 | 0.117 |  | 0.149 |  | 0.142 |  | 0.133 |  |  | 0.128 |  | 0.0926 | 
5 | MGEWLFKGPRDYNPISSSICHLTNESDGHTTSLYGIGFGPFIITNKHLFRRNNGTLVVQSLHGVFKVKDTTTLQQHLVDGRDMIIIRMPKDFPPFPQKLKFREPQREERICLVTTNFQTKSMSSMVSDTSCTFPSGDGIFWKHWIQTKDGQCGSPLVSTRDGFIVGIHSASNFTNTNNYFTSVPKNFMELLTNQEAQQWVSGWRLNADSVLWGGHKVFMVKPEEPFQPVKEATQL [S4W] |  | 0.106 | 0.0769 |  | 0.106 | 0.0781 |  |  | 0.15 | 0.0665 | 0.0971 | 0.092 | 0.087 | 0.0845 |  | 0.073 | 0.107 | 0.113 | 0.0834
6 | MGESLMKGPRDYNPISSSICHLTNESDGHTTSLYGIGFGPFIITNKHLFRRNNGTLVVQSLHGVFKVKDTTTLQQHLVDGRDMIIIRMPKDFPPFPQKLKFREPQREERICLVTTNFQTKSMSSMVSDTSCTFPSGDGIFWKHWIQTKDGQCGSPLVSTRDGFIVGIHSASNFTNTNNYFTSVPKNFMELLTNQEAQQWVSGWRLNADSVLWGGHKVFMVKPEEPFQPVKEATQL [F6M] |  | 0.0974 |  | 0.132 |  | 0.11 | 0.0959 |  |  |  | 0.106 |  | 0.105 | 0.0949 | 0.119 | 0.101 |  |  | 
7 | MGESLQKGPRDYNPISSSICHLTNESDGHTTSLYGIGFGPFIITNKHLFRRNNGTLVVQSLHGVFKVKDTTTLQQHLVDGRDMIIIRMPKDFPPFPQKLKFREPQREERICLVTTNFQTKSMSSMVSDTSCTFPSGDGIFWKHWIQTKDGQCGSPLVSTRDGFIVGIHSASNFTNTNNYFTSVPKNFMELLTNQEAQQWVSGWRLNADSVLWGGHKVFMVKPEEPFQPVKEATQL [F6Q] |  |  |  |  | 0.0946 | 0.104 | 0.0803 | 0.116 | 0.107 |  | 0.0887 | 0.0963 |  |  | 0.0968 |  |  | 0.108 | 
8 | MGESLVKGPRDYNPISSSICHLTNESDGHTTSLYGIGFGPFIITNKHLFRRNNGTLVVQSLHGVFKVKDTTTLQQHLVDGRDMIIIRMPKDFPPFPQKLKFREPQREERICLVTTNFQTKSMSSMVSDTSCTFPSGDGIFWKHWIQTKDGQCGSPLVSTRDGFIVGIHSASNFTNTNNYFTSVPKNFMELLTNQEAQQWVSGWRLNADSVLWGGHKVFMVKPEEPFQPVKEATQL [F6V] |  | 0.0823 | 0.154 | 0.155 |  | 0.137 | 0.101 |  | 0.112 |  | 0.093 |  |  |  | 0.143 | 0.139 | 0.105 |  | 0.166
9 | MGESLYKGPRDYNPISSSICHLTNESDGHTTSLYGIGFGPFIITNKHLFRRNNGTLVVQSLHGVFKVKDTTTLQQHLVDGRDMIIIRMPKDFPPFPQKLKFREPQREERICLVTTNFQTKSMSSMVSDTSCTFPSGDGIFWKHWIQTKDGQCGSPLVSTRDGFIVGIHSASNFTNTNNYFTSVPKNFMELLTNQEAQQWVSGWRLNADSVLWGGHKVFMVKPEEPFQPVKEATQL [F6Y] |  |  |  |  | 0.0608 | 0.0517 |  |  |  | 0.0624 | 0.0757 |  |  |  |  |  | 0.039 |  | 
10 | MGESLFKGKRDYNPISSSICHLTNESDGHTTSLYGIGFGPFIITNKHLFRRNNGTLVVQSLHGVFKVKDTTTLQQHLVDGRDMIIIRMPKDFPPFPQKLKFREPQREERICLVTTNFQTKSMSSMVSDTSCTFPSGDGIFWKHWIQTKDGQCGSPLVSTRDGFIVGIHSASNFTNTNNYFTSVPKNFMELLTNQEAQQWVSGWRLNADSVLWGGHKVFMVKPEEPFQPVKEATQL [P9K] |  |  |  |  | 0.0694 | 0.13 | 0.0845 | 0.0802 | 0.0915 |  | 0.128 |  | 0.11 |  |  | 0.0842 | 0.126 |  | 0.125
11 | MGESLFKGPEDYNPISSSICHLTNESDGHTTSLYGIGFGPFIITNKHLFRRNNGTLVVQSLHGVFKVKDTTTLQQHLVDGRDMIIIRMPKDFPPFPQKLKFREPQREERICLVTTNFQTKSMSSMVSDTSCTFPSGDGIFWKHWIQTKDGQCGSPLVSTRDGFIVGIHSASNFTNTNNYFTSVPKNFMELLTNQEAQQWVSGWRLNADSVLWGGHKVFMVKPEEPFQPVKEATQL [R10E] |  | 0.085 | 0.154 |  | 0.0798 | 0.0902 | 0.0898 |  |  | 0.0718 | 0.0887 | 0.115 |  |  |  | 0.06 | 0.101 | 0.0977 | 0.0909
